# Results published in the supplement of paper PMC12217912.
# The list shows a part of the results. Sequences were assembled here from the parent chain. Inactive controls read about 0.05.
# B1: TEV protease; numbered along this chain (parent)
# chain: MGESLFKGPRDYNPISSSICHLTNESDGHTTSLYGIGFGPFIITNKHLFRRNNGTLVVQSLHGVFKVKDTTTLQQHLVDGRDMIIIRMPKDFPPFPQKLKFREPQREERICLVTTNFQTKSMSSMVSDTSCTFPSGDGIFWKHWIQTKDGQCGSPLVSTRDGFIVGIHSASNFTNTNNYFTSVPKNFMELLTNQEAQQWVSGWRLNADSVLWGGHKVFMVKPEEPFQPVKEATQL
# Variants of: B1
# Assay: raw area under fraction-flipped curve 0-4 h after induction (AUC4h, not background-subtracted), DNA-recorder readout of cleavage of the substrate (dimensionless); higher = more cleavage of the substrate by the protease variant
# Conditions: temperature: 34 °C; time window: 0-4 h after rhamnose induction
# 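Also: Bxb1 expression induced with 0.2% (w/v) L-rhamnose at OD600 near 0.5, cultures sampled hourly, flipped fraction per protease–substrate barcode pair counted by paired-end Illumina sequencing.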
Variant,area with substrate ENLYDQS,area with substrate ENLYEQS,area with substrate ENLYKQS,area with substrate ENLYPQS,area with substrate ENLYQQS,area with substrate ENLYRQS,area with substrate ENLYSQS,area with substrate ENLYHQS,area with substrate ENLYVQS,area with substrate ENLYWQS,area with substrate ENLYGQS,area with substrate ENLYIQS,area with substrate ENLYNQS,area with substrate ENLYYQS,area with substrate ENLYLQS,area with substrate ENLYTQS,area with substrate ENLYMQS
F180T,0.0639,0.0595,0.0285,0.0515,0.0573,0.0509,0.0623,–,–,–,–,–,–,–,–,–,–
P94L,0.0701,–,0.0516,–,–,0.0617,–,0.131,0.116,0.106,–,–,–,–,–,–,–
M188V,0.0644,–,–,0.0606,–,0.0584,–,0.0468,0.0474,–,0.0504,0.142,0.0675,–,–,–,–
V58A,0.0619,–,–,–,–,–,–,–,–,–,–,0.105,–,0.0564,–,–,–
R87L,0.0636,0.0556,–,–,0.0638,–,–,0.0494,0.0988,–,0.0641,0.0971,–,0.0712,0.0834,0.0779,–
V113E,0.041,0.0596,0.0539,0.0569,0.0571,0.041,0.0597,0.0626,0.0706,0.0634,0.0621,0.0694,0.0468,–,0.0642,0.0613,0.0544
F38S,0.0539,0.0586,0.0527,0.0867,0.0569,0.0562,0.0566,0.0542,0.0802,0.0793,0.0565,0.0851,0.0556,–,–,–,0.0824
T129R,0.0683,0.0728,0.0569,0.0748,–,0.0799,–,0.0678,–,0.0736,0.0557,–,0.0528,–,–,–,0.0893
L235R,0.0641,–,–,0.0899,–,–,–,–,–,–,–,0.146,–,–,–,–,–
H143E,0.0622,0.0692,0.0619,–,–,0.0576,0.0716,0.0537,–,0.0569,0.0477,–,0.0596,0.0576,–,–,0.0536
G54P,0.0495,–,0.0532,0.0595,–,–,–,–,–,0.0556,0.0574,–,0.0671,–,–,–,0.0285
G150M,0.069,0.0599,0.059,0.0565,–,0.065,–,0.0438,0.062,0.0659,–,0.0501,0.0476,–,–,–,0.0321
G37D,0.0563,0.0475,0.0472,0.0381,0.023,0.0392,0.043,0.052,0.0384,0.0276,0.0418,0.0451,0.0332,–,–,0.0421,0.0432
F6E,0.0985,0.0587,–,–,0.05,–,–,0.0296,0.108,0.072,0.0659,–,0.0721,–,–,–,–
D149W,0.0518,0.0671,0.0497,0.0421,0.0518,–,0.0673,–,0.0679,–,0.0423,0.0659,0.0659,–,–,0.0508,0.0727
W199T,0.0593,0.0513,–,0.0678,–,0.0633,0.0675,0.0392,0.0799,0.057,0.0513,0.0613,0.067,–,–,0.0626,0.062
I84L,0.0776,0.0632,–,0.041,0.0681,0.0659,–,–,0.0899,0.0854,–,0.0931,0.0743,0.0758,0.094,–,0.0834
